Publication PMC6345720
No constants are given. Whether binding was seen depends on the method and setting. In cells and extracts the contact can be indirect. Some binding calls cover weakened binding; strength is not graded here. Where a sequence is shown, tags or fusion partners need not be part of it.

Tests used:
[1] = target: T1, PLDδ-cYFP-HA (35S::PLDδ-cYFP-HA) (Arabidopsis thaliana) (UniProt Q9C5Y0); assay: split reporter; BiFC: nYFP and cYFP fusions co-expressed in N. benthamiana leaves; confocal microscopy 2.5 days after infiltration
T1 sequence: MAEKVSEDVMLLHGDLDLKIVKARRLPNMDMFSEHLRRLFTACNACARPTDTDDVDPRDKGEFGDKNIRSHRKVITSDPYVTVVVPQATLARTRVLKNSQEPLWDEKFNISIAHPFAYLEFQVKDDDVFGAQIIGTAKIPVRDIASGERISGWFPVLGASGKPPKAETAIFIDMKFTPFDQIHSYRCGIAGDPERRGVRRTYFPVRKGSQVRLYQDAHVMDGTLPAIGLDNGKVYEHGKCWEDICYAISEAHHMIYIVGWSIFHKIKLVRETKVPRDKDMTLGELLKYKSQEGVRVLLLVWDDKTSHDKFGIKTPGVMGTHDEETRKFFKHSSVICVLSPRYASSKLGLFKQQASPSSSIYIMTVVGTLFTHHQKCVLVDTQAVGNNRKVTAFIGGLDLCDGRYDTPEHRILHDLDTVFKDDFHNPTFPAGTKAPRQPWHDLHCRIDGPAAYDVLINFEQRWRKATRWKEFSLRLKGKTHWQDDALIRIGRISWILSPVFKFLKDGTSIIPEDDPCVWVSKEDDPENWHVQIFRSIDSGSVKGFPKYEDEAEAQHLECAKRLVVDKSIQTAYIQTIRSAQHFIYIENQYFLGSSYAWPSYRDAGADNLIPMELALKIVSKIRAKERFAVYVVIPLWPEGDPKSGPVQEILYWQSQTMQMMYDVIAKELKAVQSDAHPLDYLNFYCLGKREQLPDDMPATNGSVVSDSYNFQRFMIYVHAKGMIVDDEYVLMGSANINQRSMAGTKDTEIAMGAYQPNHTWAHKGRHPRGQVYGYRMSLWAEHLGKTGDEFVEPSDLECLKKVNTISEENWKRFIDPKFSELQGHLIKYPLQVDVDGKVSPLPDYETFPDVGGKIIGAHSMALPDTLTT

[2] = target: T2, PLDδ-YFP-HA (35S::PLDδ-YFP-HA, in A. thaliana) (Arabidopsis thaliana) (UniProt Q9C5Y0); assay: co-IP; stable transgenic A. thaliana plants containing 35S::PLDδ-YFP-HA and pRPM1::RPM1-Myc; plants with pRPM1::RPM1-Myc alone as negative control
T2 sequence: T1 sequence

B1: RPM1-nYFP-HA (35S::RPM1-nYFP-HA) (receptor, UniProt Q39214 1-926)
chain: MASATVDFGIGRILSVLENETLLLSGVHGEIDKMKKELLIMKSFLEDTHKHGGNGSTTTTTQLFQTFVANTRDLAYQIEDILDEFGYHIHGYRSCAKIWRAFHFPRYMWARHSIAQKLGMVNVMIQSISDSMKRYYHSENYQAALLPPIDDGDAKWVNNISESSLFFSENSLVGIDAPKGKLIGRLLSPEPQRIVVAVVGMGGSGKTTLSANIFKSQSVRRHFESYAWVTISKSYVIEDVFRTMIKEFYKEADTQIPAELYSLGYRELVEKLVEYLQSKRYIVVLDDVWTTGLWREISIALPDGIYGSRVMMTTRDMNVASFPYGIGSTKHEIELLKEDEAWVLFSNKAFPASLEQCRTQNLEPIARKLVERCQGLPLAIASLGSMMSTKKFESEWKKVYSTLNWELNNNHELKIVRSIMFLSFNDLPYPLKRCFLYCSLFPVNYRMKRKRLIRMWMAQRFVEPIRGVKAEEVADSYLNELVYRNMLQVILWNPFGRPKAFKMHDVIWEIALSVSKLERFCDVYNDDSDGDDAAETMENYGSRHLCIQKEMTPDSIRATNLHSLLVCSSAKHKMELLPSLNLLRALDLEDSSISKLPDCLVTMFNLKYLNLSKTQVKELPKNFHKLVNLETLNTKHSKIEELPLGMWKLKKLRYLITFRRNEGHDSNWNYVLGTRVVPKIWQLKDLQVMDCFNAEDELIKNLGCMTQLTRISLVMVRREHGRDLCDSLNKIKRIRFLSLTSIDEEEPLEIDDLIATASIEKLFLAGKLERVPSWFNTLQNLTYLGLRGSQLQENAILSIQTLPRLVWLSFYNAYMGPRLRFAQGFQNLKILEIVQMKHLTEVVIEDGAMFELQKLYVRACRGLEYVPRGIENLINLQELHLIHVSNQLVERIRGEGSVDRSRVKHIPAIKHYFRTDNGSFYVSLSS
For B1, the binding [1] was “binds”.

B2: RPM1-Myc (pRPM1::RPM1-Myc, in the A. thaliana line AT5) (receptor, UniProt Q39214 1-926)
chain: B1 chain
With B2 the binding [2] was “binds”.
